# Source: publication PMC9911399, “Two distinct binding modes provide the RNA-binding protein RbFox with extraordinary sequence specificity”
# Numbering of substitutions follows the chain as printed; changes in the protein carry UniProt numbers. The list shows a part of the results.
# T1: RBFOX1 RRM RbFoxmut (Fox-RRM*) (Homo sapiens, UniProt Q9NWB1 109-208, R118D;E147R;N151S;E152T)
# T1 sequence: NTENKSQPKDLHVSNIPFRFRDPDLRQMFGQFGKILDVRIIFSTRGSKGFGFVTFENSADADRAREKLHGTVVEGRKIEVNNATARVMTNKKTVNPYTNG
# B1: AAAGUGG (DNA:RNA)
# RNA: GGGAGACCGGAAUUCAGAUUGUCCAAAGUGGUUAAAUCCCGUCGUAGCCACCA
# DNA 1: CAATCTGAATTCCGGTCTCCC
# DNA 2: TGGTGGCTACGACGGGATT
# B2: CGACGUA (DNA:RNA)
# RNA: B1 RNA with A25C, A26G, G28C, U29G, G30U, G31A
# DNA 1: CAATCTGAATTCCGGTCTCCC
# DNA 2: TGGTGGCTACGACGGGATT
# B3: GCGAGCU (DNA:RNA)
# RNA: GGGAGACCGGAAUUCAGAUUGUCCGCGAGCUUUAAAUCCCGUCGUAGCCACCA
# DNA 1: CAATCTGAATTCCGGTCTCCC
# DNA 2: TGGTGGCTACGACGGGATT
# B4: ACCGUAG (DNA:RNA)
# RNA: B1 RNA with A26C, A27C, G30A
# DNA 1: CAATCTGAATTCCGGTCTCCC
# DNA 2: TGGTGGCTACGACGGGATT
# B5: CAUGUUU (DNA:RNA)
# RNA: B1 RNA with A25C, A27U, G30U, G31U
# DNA 1: CAATCTGAATTCCGGTCTCCC
# DNA 2: TGGTGGCTACGACGGGATT
# B6: UAACGUG (DNA:RNA)
# RNA: B1 RNA with A25U, G28C, U29G, G30U
# DNA 1: CAATCTGAATTCCGGTCTCCC
# DNA 2: TGGTGGCTACGACGGGATT
# B7: GCAAAGA (DNA:RNA)
# RNA: B3 RNA with G27A, G29A, C30G, U31A
# DNA 1: CAATCTGAATTCCGGTCTCCC
# DNA 2: TGGTGGCTACGACGGGATT
# B8: AAUAGUG (DNA:RNA)
# RNA: B1 RNA with A27U, G28A, U29G, G30U
# DNA 1: CAATCTGAATTCCGGTCTCCC
# DNA 2: TGGTGGCTACGACGGGATT
# B9: UUUAAAC (DNA:RNA)
# RNA: B3 RNA with G25U, C26U, G27U, G29A, C30A, U31C
# DNA 1: CAATCTGAATTCCGGTCTCCC
# DNA 2: TGGTGGCTACGACGGGATT
# B10: UACGCCU (DNA:RNA)
# RNA: B1 RNA with A25U, A27C, U29C, G30C, G31U
# DNA 1: CAATCTGAATTCCGGTCTCCC
# DNA 2: TGGTGGCTACGACGGGATT
# B11: UUCGCCC (DNA:RNA)
# RNA: B1 RNA with A25U, A26U, A27C, U29C, G30C, G31C
# DNA 1: CAATCTGAATTCCGGTCTCCC
# DNA 2: TGGTGGCTACGACGGGATT
# B12: ACCAACA (DNA:RNA)
# RNA: B3 RNA with G25A, G27C, G29A, U31A
# DNA 1: CAATCTGAATTCCGGTCTCCC
# DNA 2: TGGTGGCTACGACGGGATT
# B13: GUUCACC (DNA:RNA)
# RNA: B3 RNA with C26U, G27U, A28C, G29A, U31C
# DNA 1: CAATCTGAATTCCGGTCTCCC
# DNA 2: TGGTGGCTACGACGGGATT
# B14: CCGACAU (DNA:RNA)
# RNA: B3 RNA with G25C, G29C, C30A
# DNA 1: CAATCTGAATTCCGGTCTCCC
# DNA 2: TGGTGGCTACGACGGGATT
# B15: GAUCGCC (DNA:RNA)
# RNA: B3 RNA with C26A, G27U, A28C, U31C
# DNA 1: CAATCTGAATTCCGGTCTCCC
# DNA 2: TGGTGGCTACGACGGGATT
# B16: GGAACUA (DNA:RNA)
# RNA: B3 RNA with C26G, G27A, G29C, C30U, U31A
# DNA 1: CAATCTGAATTCCGGTCTCCC
# DNA 2: TGGTGGCTACGACGGGATT
# B17: CCGGCGC (DNA:RNA)
# RNA: B1 RNA with A25C, A26C, A27G, U29C, G31C
# DNA 1: CAATCTGAATTCCGGTCTCCC
# DNA 2: TGGTGGCTACGACGGGATT
# B18: CAAGGAU (DNA:RNA)
# RNA: B1 RNA with A25C, U29G, G30A, G31U
# DNA 1: CAATCTGAATTCCGGTCTCCC
# DNA 2: TGGTGGCTACGACGGGATT
# B19: UCCGCAC (DNA:RNA)
# RNA: B1 RNA with A25U, A26C, A27C, U29C, G30A, G31C
# DNA 1: CAATCTGAATTCCGGTCTCCC
# DNA 2: TGGTGGCTACGACGGGATT
# B20: UUGAGAG (DNA:RNA)
# RNA: B3 RNA with G25U, C26U, C30A, U31G
# DNA 1: CAATCTGAATTCCGGTCTCCC
# DNA 2: TGGTGGCTACGACGGGATT
# B21: AAAUUCC (DNA:RNA)
# RNA: B1 RNA with G28U, G30C, G31C
# DNA 1: CAATCTGAATTCCGGTCTCCC
# DNA 2: TGGTGGCTACGACGGGATT
# B22: UGGGGUU (DNA:RNA)
# RNA: B3 RNA with G25U, C26G, A28G, C30U
# DNA 1: CAATCTGAATTCCGGTCTCCC
# DNA 2: TGGTGGCTACGACGGGATT
# B23: GCGUUAG (DNA:RNA)
# RNA: B3 RNA with A28U, G29U, C30A, U31G
# DNA 1: CAATCTGAATTCCGGTCTCCC
# DNA 2: TGGTGGCTACGACGGGATT
# B24: CUGCCUC (DNA:RNA)
# RNA: B3 RNA with G25C, C26U, A28C, G29C, C30U, U31C
# DNA 1: CAATCTGAATTCCGGTCTCCC
# DNA 2: TGGTGGCTACGACGGGATT
# B25: UCGCAAG (DNA:RNA)
# RNA: B3 RNA with G25U, A28C, G29A, C30A, U31G
# DNA 1: CAATCTGAATTCCGGTCTCCC
# DNA 2: TGGTGGCTACGACGGGATT
# B26: UUGAAAC (DNA:RNA)
# RNA: B3 RNA with G25U, C26U, G29A, C30A, U31C
# DNA 1: CAATCTGAATTCCGGTCTCCC
# DNA 2: TGGTGGCTACGACGGGATT
# B27: UAGGCAU (DNA:RNA)
# RNA: B1 RNA with A25U, A27G, U29C, G30A, G31U
# DNA 1: CAATCTGAATTCCGGTCTCCC
# DNA 2: TGGTGGCTACGACGGGATT
# B28: UUGUGCU (DNA:RNA)
# RNA: B3 RNA with G25U, C26U, A28U
# DNA 1: CAATCTGAATTCCGGTCTCCC
# DNA 2: TGGTGGCTACGACGGGATT
# B29: CAAGAUU (DNA:RNA)
# RNA: B1 RNA with A25C, U29A, G30U, G31U
# DNA 1: CAATCTGAATTCCGGTCTCCC
# DNA 2: TGGTGGCTACGACGGGATT
# B30: CUUCCCC (DNA:RNA)
# RNA: B3 RNA with G25C, C26U, G27U, A28C, G29C, U31C
# DNA 1: CAATCTGAATTCCGGTCTCCC
# DNA 2: TGGTGGCTACGACGGGATT
# B31: GUAUGCA (DNA:RNA)
# RNA: B3 RNA with C26U, G27A, A28U, U31A
# DNA 1: CAATCTGAATTCCGGTCTCCC
# DNA 2: TGGTGGCTACGACGGGATT
# Molecular target: T1, RBFOX1 RRM RbFoxmut (Fox-RRM*)
# Assay: EMSA; HiTS-Eq, 1 nM pool, 10 min; buffer printed only for the single-RNA assays: 10 mM Tris pH 7.5, 150 mM NaCl, 3.4 mM EDTA, 0.001% NP-40, 30 C
# Conditions: tags: His6 N-terminal (pET28a); label: 5' 32P
# In short: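 Purified RbFox RRM (wild type or mutant) was equilibrated for 10 min in 50 µL with 1 nM of a 5′-radiolabelled pool of RNA with 7 randomized nucleotides, its flanks annealed to DNA oligonucleotides, across increasing protein concentrations. Free RNA was separated by 8% native PAGE, excised, reverse-transcribed, PCR-barcoded and sequenced on an Illumina HiSeq 2500. Relative association constants came from read-count changes of each variant against the control reaction, normalised to the cognate motif.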
row,Binder,binding signal
1,B1,0.089 KA relative to UGCAUGU
2,B2,0.125 KA relative to UGCAUGU
3,B3,0.081 KA relative to UGCAUGU
4,B4,0.117 KA relative to UGCAUGU
5,B5,0.139 KA relative to UGCAUGU
6,B6,0.104 KA relative to UGCAUGU
7,B7,0.0604 KA relative to UGCAUGU
8,B8,0.132 KA relative to UGCAUGU
9,B9,0.0686 KA relative to UGCAUGU
10,B10,0.11 KA relative to UGCAUGU
11,B11,0.0579 KA relative to UGCAUGU
12,B12,0.101 KA relative to UGCAUGU
13,B13,0.0751 KA relative to UGCAUGU
14,B14,0.0623 KA relative to UGCAUGU
15,B15,0.11 KA relative to UGCAUGU
16,B16,0.061 KA relative to UGCAUGU

row,Binder,binding signal
1,B17,0.0815 KA relative to UGCAUGU
2,B18,0.0733 KA relative to UGCAUGU
3,B19,0.0707 KA relative to UGCAUGU
4,B20,0.105 KA relative to UGCAUGU
5,B21,0.0443 KA relative to UGCAUGU
6,B22,0.107 KA relative to UGCAUGU
7,B23,0.111 KA relative to UGCAUGU
8,B24,0.0844 KA relative to UGCAUGU
9,B25,0.0758 KA relative to UGCAUGU
10,B26,0.0764 KA relative to UGCAUGU
11,B27,0.0798 KA relative to UGCAUGU
12,B28,0.116 KA relative to UGCAUGU
13,B29,0.0792 KA relative to UGCAUGU
14,B30,0.0452 KA relative to UGCAUGU
15,B31,0.574 KA relative to UGCAUGU
